Publication PMC10726135
This is one part of the list. At the low end of the ranking, values are background and their order means little. The protein was read in a cell extract, so binding may be indirect.

What follows are sequences tested against T1, HNF4alpha2 (COS-7 nuclear extract) (UniProt P41235) (assay: protein-binding microarray). Settings: COS-7 nuclear extract on double-stranded Agilent 4x180k PBM; binding buffer, salt, pH and temperature not given; high values mean tight binding; double strand, one strand shown; sequences stand for … in …GCCTAGGGAGATTAGAGTATCGGTCGA.
T1 sequence: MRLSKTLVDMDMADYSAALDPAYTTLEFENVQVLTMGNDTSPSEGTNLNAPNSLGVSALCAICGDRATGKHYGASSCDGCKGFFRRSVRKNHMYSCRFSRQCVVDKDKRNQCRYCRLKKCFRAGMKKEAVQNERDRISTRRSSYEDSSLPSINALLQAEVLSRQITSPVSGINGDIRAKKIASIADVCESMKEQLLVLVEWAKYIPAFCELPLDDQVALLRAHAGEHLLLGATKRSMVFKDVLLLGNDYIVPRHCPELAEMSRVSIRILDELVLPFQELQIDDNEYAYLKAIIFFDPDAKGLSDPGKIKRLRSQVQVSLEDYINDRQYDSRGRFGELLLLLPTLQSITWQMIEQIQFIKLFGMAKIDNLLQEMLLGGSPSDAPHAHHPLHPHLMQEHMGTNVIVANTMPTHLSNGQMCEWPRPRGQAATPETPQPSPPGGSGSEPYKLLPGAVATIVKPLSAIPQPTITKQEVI

Row | Sequence | binding signal (log2 normalized intensity)
1 | CCCGCCCAGATGTCTGGCTAAGACCTTTAG | 1.8
2 | AACTGCAGGAGTCGGGAGGTAGGGGTGGCG | -0.858
3 | TGTTCTTGCCTGATAGCATCGTGGGTATTT | 1.26
4 | AATACTTGCCTAAGGTCAATGTCCTTTTTC | 3.64
5 | TGGCTCCAAAGTCTATGTGTGCTTTCTTCA | 2.12
6 | GGCCCTGTGCTGCCCCCGATAGCACTATTA | 3.44
7 | TTGCTGGTCCCTTTCAAAACCTTTGGTTTT | 1.21
8 | GCCAGATATGCCGAGAATGCAGCCTTATCT | -1.15
9 | GCAGAGTTTTTTACTGCTCCTGCTGGCTAG | -1.13
10 | TAACTAACAAAAGCAGAGGAGTGGCCATGA | -1.04
11 | GACTCCAGCTAAAGCCTGCTCGTTGGGGGT | -0.983
12 | TCATTCAAAGTCCAAAAAGAATCAGTTACA | 1.64
13 | GCATGCACTGTTTGCCATAGATCCCACCAT | 1.17
14 | GCCTGTCAGGCCCAGAAACACTGAACCTTG | 1.63
15 | TTACCTGGGAAATTCCCTTTGCCTCATCTG | -0.976
16 | ATCACACAGGCATATTTGGTTAGCTGTGCA | 0.0543
17 | AGGTCAGGTGAATCAACGATAAGGGATGAT | -1.14
18 | CACAGACCTGCCTCTCTCTCATGTCTGTAC | 1.21
19 | AGTCCAAGAGATTTCTACAGATAGCAAGAT | -1.09
20 | TCCTTCTCACCGGGTGGAGCCTCACTGCAG | 0.143
21 | ACAGTTAGGTAAGAGACAAAGGTTGCATTC | 1.79
22 | TCCTTTTGCTTAAAACGCCTGCAGAAACTT | 0.384
23 | GGATGAGGCCGTTCTAGCCCTTTTTCCGGC | -0.835
24 | TCAAAGCCAGCAACGGTGAGTCAAGCACTT | -1.11
25 | GACAGCGGGTGTTTCTGGGAGTTGTGGTCC | 1.55

Row | Sequence | binding signal (log2 normalized intensity)
26 | GAACATAAGGATGCGGACTCCTCCCTCAGC | -0.967
27 | CACCCAGAGCGTCCCACCTGAGGCCAAGCA | -1.25
28 | AGCCAGGTTAATTCACATCTCCAGTTCCAA | -0.99
29 | CTGCTGGGCGTGAACTGTGACTTTTATCTT | 1.61
30 | TGAAGTCCAAAGGCCATCTGCTGGAGAATC | 3.06
31 | AGTAGAGAGCAATCATGGGCCCACAGATGA | -0.846
32 | CTTTCTTCTTGATCAAGAGGAAGATCTTTT | 1.56
33 | AGCCTGTGGTTTCTCTTTGTATACACATTA | 1.44
34 | GGTGTTAAAATAACGACCTTTGGGCTAAAA | 3.81
35 | CACCTTGGGGGCTGCTGGGGGCACAGTCCA | 2.36
36 | ATAGCCAAGCCAACCAGGAGAATTTCAGTA | 2.22
37 | AGTGTTAAGGACAACCGGTAGCACAACATA | -1.04
38 | ATCCTTCTTGACCAGGCAAGCTTGACCTTT | 7.07
39 | TCACTGACATTCCAGCCACTAAGAAGCCCA | -0.962
40 | AGAGGGGCCAGGAACGTCACACTGAAAGCT | -1.18
41 | AACACTATCTTCTTTCAGTGTTGACCTTTG | 6.87
42 | ATCCCCCACACCGAGATAGTAGAGATAGTG | 2.59
43 | GAGCGCAAATGATCAAAGGTCGGTTTTAGG | 4.85
44 | GTCAGTTGATAAACAGATAACTGGGGGCAA | 0.764
45 | TCACAAATGGAGTTTGGTTTAAAGTTCAAG | 2.34
46 | CATATTCCTTAGATAAAAAGCTTTTCTTCC | -1.16
47 | TCTTTACACATCTGTTAGGAATGTCATGCA | 1.7
48 | ACTTGTTATCACCTGCTGGAATGTTTCAAG | 1.05
49 | GGGGGTGGAGAAGGAAGGGGAAGATGATAG | -1.03
50 | GAGTTCAGTTATCATTTCTACAGGGTCAAG | 2.62

Row | Sequence | binding signal (log2 normalized intensity)
51 | TCCGGCCTGAGGCAGGATCAGGGCCCCTTC | -1.08
52 | AAAGAGAAAGTAAGTGCACAGCCAGAACTG | -1.15
53 | GACCTCGGCGGAGCCTCCGGCCTGAGGCAG | -1.29
54 | CTCAAGGAATCCTCCTAAGTAGCCAAGATT | -0.94
55 | ACCAGGTAGGGCCCCCAGCCAGGCCCCAGG | 0.198
56 | CTCTGCCTCGGCCACATTCCCCGACTCCTG | 1.42
57 | ACAGATGGCCTCACTCGGTGTGAGTGGTCC | 0.654
58 | ACCTCGATCCCTGGCTAAGGTCCTGTTTGT | 1.5
59 | GGATTTCTTGGCTTCTCTTGGACCTCAATG | 2.13
60 | GGGCCAGCTGTACAAATAAAGGATGAAGGA | -1.01
61 | ATGCCCAAATGAATAATCCCCTCCTGGACT | 2.94
62 | AGTTCCGAGTTCCCTCGATTATTTCAGCCA | -0.208
63 | AGGGTACAAATTCCAGAGAGGGGCCTCCAT | 1.14
64 | TAGACATAGGTTATAAACTTGTTTGGGATT | 0.53
65 | CAAGCCCAAAGCCCCCAGAGGTTCTAGCCC | 3.42
66 | GATAAGCCAAGAATGTACTCTCCCCACCTG | 3.05
67 | ACCATCTCCAACATGACCACCTGGTTTAAG | 0.189
68 | GGAAGGAGTCATTATCTTTATTATCCCAGT | 1.84
69 | GTGCCTCTTTGGTGAATTTTATGTCTTCTT | 1.96
70 | TGTCTCTGTAAATAAATGTCATTTAAGACG | 0.744
71 | GACCTTCAGATGCAGTCCAGAAGGTCAGGA | 3.44
72 | CGGAAGTTGCAGTGAGCTAAGATTGGACTC | 4.36
73 | TGGGACTCATTTATGGAGGAATTTGGACTT | 4.74
74 | CTGCTGGACACCGAGGTCCTGGGGCGATGC | -1.06
75 | TTGAGCTGCTAAACCAACACCAGCAACCGC | -1.01

Row | Sequence | binding signal (log2 normalized intensity)
76 | ACTAAGTGCTTAGTATGTGCTAGGCATTTT | 1.27
77 | TATTGAACCACCAGATAGAGCTTTTGAGGG | -0.806
78 | CATCATAAACCCGATCCTTACTATTAGGTC | 0.213
79 | GACCTGGAGCCAGGGCCTTTTCAAGGGAGT | -0.796
80 | GATAATCTCAAAAGGGAATTTTGGACAAGG | -0.0756
81 | CTTCAAGTGTGACCCTGAACCTACAGCCCC | 2.32
82 | GGAGCTGGTGGAGCAAAAAGGCCGTTCAAA | -1.19
83 | TGGCTTCTGACCTTTGGCATTGTGTTACGT | 4.74
84 | TAACAGCGGCATTCCTGTCAAAATCTGATC | 0.468
85 | CTTCTTCTGGAGCCTCAGTAAGTTTACTTC | 0.33
86 | AGATAAAAAGCTTTTCTTCCCCCCTCCCTC | 5.26
87 | CCAGGGGAGGTTATCTTGGGGCTAATGTCT | 0.639
88 | TCACATTGGAGGAGGGGGCGGTTAAACATT | 0.28
89 | ATCTCCAGATAAGACTTTGGACTTTGGACC | 11.6
90 | CCATTTGCTGCTCTAGATGAGGGGGAAAGG | -1.09
91 | GGCCTGGACTCCAAGCCCCAAAAACTTGGA | -0.921
92 | GTTCAAACTTTATTTGATGATGAAGCAACA | 0.841
93 | GTGCTGGGGACAAAAGCTGAGTCCCTGCTT | -0.868
94 | CATCAAAGCATTTGGAGATTGCCACCTTGG | -0.25
95 | TTATCTGATAAGTCCATACCTAGTCTTATC | 0.62
96 | CGCCCTTGGAATATCCTGCCTAACAGGAGT | -1.21
97 | TGGTTTACTTATGTCTCCAGAAACCAACCT | -0.0542
98 | GTTATCACAGGCTTGGAATGTTTCTGTATC | 0.785
99 | TTGGGGTCCAAAGTCTTTGTTCCTAGCCAC | 3.51
100 | GAATCTGTTCCACCTGATCAAGCAACTGGC | -1.09

Row | Sequence | binding signal (log2 normalized intensity)
101 | ATGGAGAAGATAAGCAGATCTTTAGAGACA | -1.14
102 | TTGTCAAAGATAGTTGTAGTTACAGCTCAT | -0.439
103 | TGAAAGTCCACTTGTCTGGCCTTCCTGGCC | 0.953
104 | GTCCGACTGCACACCGTCCAGAGGCTCCAA | -1.21
105 | CCTGGGCTGTATGTTCTAACCATAGGAGGC | -1.1
106 | AATGTGCCCAGATAAGAACTGCAAGGCTAG | -0.646
107 | TCTTTCGCTGTAGAAAGTGGTTTCAAGGTG | 1.51
108 | CCTTTGGAAGGTGGGGGAGGAGACAGCTAC | -1.15
109 | ACTTCACTCAGTGGGGTGTCTGTGTGCCTC | 2.16
110 | CATAAGCCTTGCTGAGGAATTTGGACTTCA | 4.37
111 | ATCTCACATTCGTTAACATCAGCTGAGCAG | 0.269
112 | TTTGTCAGCATCTTCACCGTAAAGCCACCC | 0.778
113 | TGGGAGGCAAAGGTTGCAGTGAGCTGTGAT | 1.31
114 | AGTGTTTTATGTGTATTTACTTATTGATAA | 1.66
115 | AGGCAGATATACCAGATAAGGCAGTGGTTT | 0.391
116 | ACAGTCCCTCCTCCAGCATAGGCTAGGACC | -0.676
117 | TAAGCGCTGCCCTGGTAAGTTCCACTGCAT | -1.1
118 | ACCCACCTACATTGATATTCCATATCAGCT | -0.646
119 | GAAATATCATTATCTTGATCAGAAAAGAAA | -0.572
120 | TAGAATGTGCTGGATGTTTCCTTTGAACTC | 2.53
121 | CCGCCCAGTGAAAACAGCCCTAACCAGGGG | -1.22
122 | TCTTAAGCTAACATGTACAGTATTGCGTAA | -0.692
123 | CCCGCAGTGAGGGACAAGGCTGTCCCCCAT | 1.6
124 | TCATTCATATCACCTAGGTGGAATCTTATA | 1.42
125 | GCCCCCCGCCCAGTGAAAACAGCCCTAACC | 3.74

Row | Sequence | binding signal (log2 normalized intensity)
126 | CACCCCCATGCAAGTTCCCACAGAGCCCAC | 4.54
127 | AGGGAATAAAGAACTCTAAGCAGCGAAGCT | -1.17
128 | GCAAATCTCTTGGTCATGGAGGGAACAAAA | 0.66
129 | AAAGGGGAAAAGGTCAAATACCAAAATGTG | 1.8
130 | AGTACACACCTGCAACCTATTTCTTTTTGA | 0.113
131 | CACAGCTGAATCCAAAGGTCAATGCCAGGA | 4.04
132 | GCTGGCTATCAGTTGAGATTTATTCCCAGG | -1.15
133 | GTACCTCCTTTCAGAACGTGTTTCCAGGCA | 1.26
134 | GTGTGCACAAGTCCTCACAATAATGAGAAA | -1.12
135 | GCTTCTGTTCGCAGACCTGCCAAAGTGTAC | 1.2
136 | GCTATGCCTTAGCAAACAGACTGGTGGCAT | -0.98
137 | TCCCAGTTGTCTGATGGCTGCTTCACACAA | -1.29
138 | GTGTGTATGAGAGAGAGAGAGAGGTGGGCA | 0.00741
139 | TAGCGAGGCGGAAGTAAGGCGGAAGTACTG | -1.14
140 | CTGTGATCTGGATTTTCAGGTTCCCCAGTG | 2.15
141 | TAAAGATATGGAACACTTTCAGAGAGATTG | -0.767
142 | GAGCACATTCCTGCACCATAACCCTCAGCT | -1.12
143 | TGGGCTTTAGGTTTGGTGTTTAATTTTCAA | 0.532
144 | GAATAAATACATAAAGTCCAAACCCCTATG | 1.73
145 | TCCTTTTGACCACAGTTATCTCCCCAGCTT | 2.47
